For experiment [1], the system named is diet-induced obesity-induced mouse model. As to the kind of experiment: Diet-induced obesity-induced model study II (preventive). The experiment is classed as in vivo, C57BL/6N mice. Here is the method:
In order to confirm the efficacy of the fusion protein against diseases according to obesity and further, sarcopenic obesity, disease induction was carried out in mice through diet-induced obesity. As an animal model, C57BL/6N was used, and was used after an acclimation period by providing normal diet for 1 week, and the housing conditions were maintained at 18~24° C., and 50~60% humidity, and ad libitum feeding with free access to feed and water was carried out during both the acclimation period and experimental period. In the mice after the acclimation period for 1 week, obesity was induced by a high-fat diet (Research Diets, Inc. D12492) to induce disease.
While obesity induction was in progress, it was confirmed whether the fusion protein prevents obesity and suppresses muscle loss induced by obesity. During providing a high-fat diet to the mice, the fusion protein (SEQ ID NO: 14) was subcutaneously injected at a dose of 5 mg/kg 8 times for a total of 6 weeks, and the efficacy thereof was observed (Control: n=11, No. 14: n=9).

Experiment [2] has as its system diet-induced obesity-induced impaired glucose tolerance mice. As to the kind of experiment: Diet-induced obesity-induced impaired glucose tolerance model (glucose tolerance test). The class given is in vivo, C57BL/6N mice. The conditions noted are these: 5.0 mg/kg 1 hour before intraperitoneal 20% glucose, after 8 hours fasting. The protocol: In order to secure an impaired glucose tolerance model, conditions causing glucose metabolic disorders in mice by diet-induced obesity were designed. As an animal model, 5-week-old male C57BL/6N mice were obtained and after undergoing an acclimation period by providing a normal diet for 1 week, they were used, and the housing conditions were maintained at 18~24° C., 50~60% humidity, and ad libitum feeding with free access to feed and water was carried out during both the acclimation period and experimental period.
In order to induce impaired glucose tolerance to the mice which had undergone the acclimation period of 1 week, a high-fat diet was supplied to induce obesity. The high-fat diet was provided by preparing as Table 10 below.
The obesity-induced mice were divided into a control group (negative control group; n=14) and an experimental group (fusion protein SEQ ID NOs: 14, 15; No. 14: n=9, No. 15: n=9) and subjected to fasting for 8 hours. Thereafter, PBS to the control, and the fusion protein to the experimental group were administered at a concentration of 5.0 mg/kg, and after 1 hours, a 20% glucose solution was intraperitoneally injected. Blood was collected at each time point and analyzed using a glucometer.

Setting [3] is: 5 mg/kg subcutaneous during high-fat diet, versus Control.

B1: SEQ ID NO: 14: Recombinant protein: Shortened substance (1-60)-Shortened linker-Fc fusion (protein)
chain: GSDQSENVDRGAGSIREAGGAFGKREQAEEERYFRAQSREQLAALKKHHEEEIVHHKKEIGGGGS[human IgG1 Fc with C220Q (EU numbers) omitted here]
As for B1, the “Absolute value of muscle mass (DXA assay)” value in experiment [1] (5 mg/kg subcutaneous 8 times for 6 weeks during high-fat diet, Control 18.57±1.26) is 20.46 ± 2.71 g. Besides, in experiment [1] (5 mg/kg subcutaneous 8 times for 6 weeks during high-fat diet, Control 34.61±2.33), the Final body weight is 32.99 ± 2.55 g. For the same molecule, in experiment [1] (setting [3]), the Fat tissue ratio entry was “decrease” and the Muscle tissue ratio entry was “increase”. Besides, the “Muscle function (grip strength test)” value in experiment [1] (5th week after administration) was “improved”. Further, the “Blood glucose variation over time (GLUAUC) compared with the control group” value in experiment [2] was “significant difference”.

Values taken from patent US20260274910A1, “SINGLE FUSION PROTEIN AND PHARMACEUTICAL COMPOSITION” (MEDI&GENE INC., priority 2023, published 2026).
